Data as given in the supplement of paper PMC4967469.
pIC50: −log10 of the molar value. Lines with a small IC50 respond at low doses; fits outside the tested doses are given as limits. AUC sums up the same curve from the lowest dose to the 256-fold higher top dose; the more sensitive the line, the further below 1. An inferred top dose comes from the curve model; the source does not state it. For some assays here: Where an entry number is given, a second screen of the drug exists; the two often differ.

Columns and labels:
Test in all cases: Viability of human cancer cell lines after 72 h of drug (GDSC screen)
[1] = compound: Cc1cccc(-c2[nH]c(C(C)(C)C)nc2-c2ccc3nccnc3c2)n1 [SB-525334]; details: top dose 20 µM; top dose inferred
Description: (§1)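 Human cancer cell lines in 384-well plates, medium with 10% serum, drug for 72 h over a 256-fold dose range (nine 2-fold or five 4-fold steps up to the top dose). Adherent lines were fixed and stained with the nucleic acid dye Syto60, suspension lines read with resazurin; signal relative to control wells, capped at 0 and 100%. One two-parameter sigmoid per drug and line, fitted in a mixed model over all curves with the slope shared within a line.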

[2] = compound: Cc1cc(N2CCOCC2)cc2[nH]c(-c3c(NC[C@@H](O)c4cccc(Cl)c4)cc[nH]c3=O)nc12 [BMS-536924]; details: top dose 4 µM; screen: GDSC drug entry 1091; top dose inferred
Description: as §1

[3] = compound: CNC(=O)c1ccc(Nc2cc(Nc3ccccc3S(=O)(=O)C(C)C)c3cc[nH]c3n2)nc1 [HG-5-113-01]; details: top dose 10 µM; top dose inferred
Description: as §1

[4] = compound: O=C(c1cc(Cc2n[nH]c(=O)c3ccccc23)ccc1F)N1CCN(C(=O)C2CC2)CC1 [Olaparib]
Description: as §1

[5] = compound: Cc1ccc(-n2nc(C(C)(C)C)cc2NC(=O)Nc2ccc(OCCN3CCOCC3)c3ccccc23)cc1 [BIRB 0796]; details: top dose 10 µM; top dose inferred
Description: as §1

[6] = compound: NC(=O)c1ccc(N(C(N)=O)c2c(F)cccc2F)nc1-c1ccc(F)cc1F [VX-702]; details: top dose 2 µM; top dose inferred
Description: as §1

[7] = compound: O=C1NC(=O)c2c1c(-c1ccccc1Cl)cc1[nH]c3ccc(O)cc3c21 [Wee1 inhibitor 681640]; details: top dose 2 µM; top dose inferred
Description: as §1

[8] = compound: CC(C)=CC[C@@H](O)C1=CC(=O)c2c(O)ccc(O)c2C1=O [Shikonin]; details: top dose 16 µM; top dose inferred
Description: as §1

[9] = top dose 5 µM, screen: GDSC drug entry 1017, top dose inferred
[10] = top dose 10 µM, screen: GDSC drug entry 1495

Cell Line	AUC [1]	pIC50 [1]	AUC [2]	pIC50 [2]	AUC [3]	pIC50 [3]	AUC [4, 9]	pIC50 [4, 9]	AUC [4, 10]	pIC50 [4, 10]	AUC [5]	pIC50 [5]	AUC [6]	pIC50 [6]	AUC [7]	pIC50 [7]	AUC [8]	pIC50 [8]
NCI-H2291 (lung adenocarcinoma, adherent)	0.984	< 4.70	0.866	< 5.40	0.733	5.42	0.975	< 5.30	0.974	< 5.00	0.958	< 5.00	0.984	< 5.70	0.96	< 5.70	0.954	< 4.80
NCI-H2347 (lung adenocarcinoma, adherent)	0.839	4.74	0.919	< 5.40	0.787	5.27	0.965	< 5.30	0.928	< 5.00	0.978	< 5.00	0.983	< 5.70	0.957	< 5.70	0.476	6.07
NUGC-4 (stomach, adherent)	0.924	< 4.70	0.879	< 5.40	0.848	5.13			0.986	< 5.00	0.937	< 5.00	0.987	< 5.70	0.986	< 5.70	0.607	5.71
PC-14 (lung adenocarcinoma, adherent)	0.984	< 4.70	0.907	< 5.40	0.691	5.70	0.981	< 5.30	0.91	< 5.00	0.984	< 5.00	0.99	< 5.70	0.911	< 5.70	0.514	5.96
PFSK-1 (medulloblastoma, adherent)	0.922	< 4.70	0.743	5.89	0.7	5.63	0.912	< 5.30			0.829	5.17	0.986	< 5.70	0.95	< 5.70	0.846	4.90
RCM-1 (large intestine, adherent)	0.973	< 4.70	0.934	< 5.40	0.895	< 5.00	0.985	< 5.30	0.982	< 5.00	0.981	< 5.00	0.977	< 5.70	0.958	< 5.70	0.6	5.70
RERF-LC-MS (lung adenocarcinoma, adherent)	0.838	4.85	0.887	< 5.40	0.842	5.13	0.967	< 5.30	0.825	5.20	0.981	< 5.00	0.987	< 5.70	0.942	< 5.70	0.661	5.55
RERF-LC-Sq1 (lung squamous cell carcinoma, adherent)	0.947	< 4.70	0.884	< 5.40	0.781	5.19	0.973	< 5.30	0.971	< 5.00	0.929	< 5.00	0.963	< 5.70	0.966	< 5.70	0.788	4.96
RO82-W-1 (thyroid, adherent)	0.974	< 4.70	0.959	< 5.40	0.847	< 5.00	0.975	< 5.30	0.953	< 5.00	0.982	< 5.00	0.98	< 5.70	0.889	< 5.70	0.673	5.46
RT4 (bladder, adherent)	0.939	< 4.70	0.936	< 5.40	0.852	5.08	0.987	< 5.30	0.972	< 5.00	0.954	< 5.00	0.972	< 5.70	0.987	< 5.70	0.695	5.44
RVH-421 (melanoma, adherent)	0.798	4.86	0.936	< 5.40	0.836	< 5.00	0.978	< 5.30	0.975	< 5.00	0.978	< 5.00	0.977	< 5.70	0.924	< 5.70	0.547	5.85
SJRH30 (rhabdomyosarcoma, adherent)	0.985	< 4.70	0.704	6.02	0.729	5.54	0.978	< 5.30	0.973	< 5.00	0.952	< 5.00	0.973	< 5.70	0.933	< 5.70	0.323	6.50
SK-MEL-3 (melanoma, adherent)	0.373	6.28	0.873	< 5.40	0.873	< 5.00	0.982	< 5.30	0.982	< 5.00	0.96	< 5.00	0.975	< 5.70	0.978	< 5.70	0.612	5.67
SK-MEL-30 (melanoma, adherent)	0.907	< 4.70	0.956	< 5.40	0.896	< 5.00	0.986	< 5.30	0.972	< 5.00	0.967	< 5.00	0.984	< 5.70	0.897	< 5.70	0.41	6.25
SK-MES-1 (lung squamous cell carcinoma, adherent)	0.959	< 4.70	0.958	< 5.40	0.919	< 5.00	0.985	< 5.30	0.952	< 5.00	0.983	< 5.00	0.985	< 5.70	0.868	< 5.70	0.579	5.77
SK-N-AS (neuroblastoma, adherent)	0.958	< 4.70	0.946	< 5.40	0.722	5.53	0.969	< 5.30	0.971	< 5.00	0.912	< 5.00	0.979	< 5.70	0.967	< 5.70	0.6	5.71
SK-N-SH (neuroblastoma, adherent)	0.891	< 4.70	0.771	5.82	0.732	5.55	0.956	< 5.30	0.972	< 5.00	0.968	< 5.00	0.987	< 5.70	0.92	< 5.70	0.374	6.34
SNG-M (endometrium, adherent)	0.963	< 4.70	0.839	5.58	0.63	5.85	0.923	< 5.30	0.831	5.21	0.946	< 5.00	0.974	< 5.70	0.864	5.77	0.332	6.46
SNU-387 (liver, adherent)	0.98	< 4.70	0.893	< 5.40	0.775	5.34	0.983	< 5.30	0.96	< 5.00	0.918	< 5.00	0.984	< 5.70	0.974	< 5.70	0.478	6.06
SU8686 (pancreas, adherent)	0.979	< 4.70	0.984	< 5.40	0.885	< 5.00	0.955	< 5.30	0.984	< 5.00	0.918	< 5.00	0.983	< 5.70	0.96	< 5.70	0.522	5.94
SW48 (large intestine, adherent)	0.973	< 4.70	0.667	6.14	0.497	6.21	0.984	< 5.30	0.963	< 5.00	0.982	< 5.00	0.981	< 5.70	0.929	< 5.70	0.498	6.01
SW620 (large intestine, adherent)	0.98	< 4.70	0.938	< 5.40	0.686	5.71	0.981	< 5.30	0.929	< 5.00	0.988	< 5.00	0.984	< 5.70	0.99	< 5.70	0.306	6.51
SW948 (large intestine, adherent)	0.941	< 4.70	0.94	< 5.40	0.796	5.13	0.981	< 5.30	0.917	< 5.00	0.973	< 5.00	0.982	< 5.70	0.982	< 5.70	0.63	5.57
SW1573 (lung adenocarcinoma, adherent)	0.968	< 4.70	0.835	< 5.40	0.733	5.43	0.957	< 5.30	0.929	< 5.00	0.949	< 5.00	0.96	< 5.70	0.897	< 5.70	0.361	6.44
SW1710 (bladder, adherent)	0.949	< 4.70	0.956	< 5.40	0.749	5.48	0.986	< 5.30	0.958	< 5.00	0.958	< 5.00	0.984	< 5.70	0.912	< 5.70	0.069	> 7.20
SW1783 (glioma, adherent)	0.983	< 4.70	0.987	< 5.40	0.857	5.16	0.988	< 5.30	0.959	< 5.00	0.988	< 5.00	0.99	< 5.70	0.948	< 5.70	0.498	6.00
